Results as given in paper PMC4336329 (PLoS ONE, 2015).
The campaign covered roughly 310,000 compounds. About 14,000 (4.5%) showed an effect of 50% or more. The effect is printed as a negative number. The list shows a part of the results.

Biological target: human ether-à-go-go-related gene (hERG) potassium channel (human, UniProt Q12809)
Assay: primary screen, population patch clamp on CHO cells stably expressing hERG
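Also: peak tail current of the secondary pulse compared with the same well before compound.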

human ether-à-go-go-related gene (hERG) potassium channel, sequence (Q12809 whole entry, looked up): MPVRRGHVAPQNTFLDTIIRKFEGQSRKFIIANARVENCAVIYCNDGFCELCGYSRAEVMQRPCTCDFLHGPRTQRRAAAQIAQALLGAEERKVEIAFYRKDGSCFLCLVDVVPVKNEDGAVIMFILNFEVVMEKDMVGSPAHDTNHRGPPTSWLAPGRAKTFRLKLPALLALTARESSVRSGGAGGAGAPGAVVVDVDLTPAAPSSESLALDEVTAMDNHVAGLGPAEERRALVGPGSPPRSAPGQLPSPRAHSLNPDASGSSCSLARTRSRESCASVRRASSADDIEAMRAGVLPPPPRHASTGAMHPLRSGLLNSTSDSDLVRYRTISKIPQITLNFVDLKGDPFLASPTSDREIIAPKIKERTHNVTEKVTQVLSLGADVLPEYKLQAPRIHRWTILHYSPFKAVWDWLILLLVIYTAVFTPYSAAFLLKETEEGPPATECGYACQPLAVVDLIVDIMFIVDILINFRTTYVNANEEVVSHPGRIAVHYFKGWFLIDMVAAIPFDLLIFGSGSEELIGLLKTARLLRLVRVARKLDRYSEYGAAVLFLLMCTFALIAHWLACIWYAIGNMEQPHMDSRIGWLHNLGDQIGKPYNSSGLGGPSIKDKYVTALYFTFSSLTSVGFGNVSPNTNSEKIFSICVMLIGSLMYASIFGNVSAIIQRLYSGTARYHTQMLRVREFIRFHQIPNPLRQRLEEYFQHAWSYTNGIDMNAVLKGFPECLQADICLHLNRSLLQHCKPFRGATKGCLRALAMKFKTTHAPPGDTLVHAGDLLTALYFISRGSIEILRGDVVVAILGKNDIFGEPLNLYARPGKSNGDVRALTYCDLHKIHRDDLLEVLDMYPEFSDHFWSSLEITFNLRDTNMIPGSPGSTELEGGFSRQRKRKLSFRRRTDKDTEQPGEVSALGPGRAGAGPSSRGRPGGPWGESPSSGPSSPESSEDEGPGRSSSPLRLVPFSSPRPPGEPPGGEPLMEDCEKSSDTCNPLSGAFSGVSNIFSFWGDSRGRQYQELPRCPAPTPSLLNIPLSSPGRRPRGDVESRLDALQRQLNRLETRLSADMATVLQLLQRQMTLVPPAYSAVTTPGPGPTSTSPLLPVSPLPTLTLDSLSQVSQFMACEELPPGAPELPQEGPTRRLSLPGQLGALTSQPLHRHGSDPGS

Row | SMILES | hERG current change (%, negative = inhibition) at 10uM [%]
1 | O=C(Cn1c(=O)[nH]c2ccsc2c1=O)NC1CCCCC1 | 8.97
2 | Cc1ccc(/C=N\n2c(-c3ccccc3)n[nH]c2=S)s1 | 15
3 | CCCOc1ccc(C(=O)NC(=S)N2C[C@H]3C[C@H](C2)c2cccc(=O)n2C3)cc1 | -9.23
4 | CCOc1ccc(CCNC(=O)c2nn(C)c3c2CS(=O)(=O)c2ccccc2-3)cc1 | -47.2
5 | COc1ccc(C(=O)NC(=S)N2CCC(C)CC2)cc1 | 16.4
6 | O=C(CC1CCCCC1)c1c(O)c2ccccc2oc1=O | -14.4
7 | COc1ccc(CNC(=O)[C@@H](NC(=O)C2CCN(S(=O)(=O)c3ccccc3)CC2)C(C)C)cc1 | 21.2
8 | COCCCn1nnnc1SCC(=O)N1c2ccccc2CC1C (stereo not shown) | 14.8
9 | COc1ccc(Cl)cc1-c1n[nH]c(=S)o1 | 18
10 | CC1(C)CC=C(NNC(=O)c2cccnc2)C(=O)C1 | 32.3
11 | CCc1ccccc1NC(=S)N1CCN(c2ccccn2)CC1 | -2.49
12 | CCOc1ccc(NC(=S)N(CCOC)C(C)c2ccco2)cc1 (stereo not shown) | -3.2
13 | O=C(NCc1cccc(C(F)(F)F)c1)c1ccc(=O)[nH]c1 | 22.5
14 | COc1ccc(N(Cc2ccccc2)S(=O)(=O)c2cccc(C(=O)Nc3ccccn3)c2)cc1 | -15.5
15 | Cc1noc(C(=O)Nc2cccnc2Cl)c1Cl | 19.4
16 | S=C1NC[C@H](CC2CCCCC2)N1CCc1cccc2ccccc12 | 16.4
17 | CN(C)C(=O)Oc1cc(=O)n2c3c(cccc13)CCC2 | 3.81
18 | O=C(NC1CCCCC1)N1CCCCCCC1 | 4.28
19 | C=CCc1c(C)nc(-c2ccccc2)nc1N/N=C/c1ccncc1 | -42.2
20 | O=C1NCCCC1C(=O)N/N=C/c1ccc([N+](=O)[O-])cc1 (stereo not shown) | -3.39
21 | COc1ccccc1N1CCN(C(=O)CN(c2ccc(C)c(C)c2)S(C)(=O)=O)CC1 | -6.02
22 | COC(=O)C1=C(c2cc3ccccc3o2)C[C@@H]2CC[C@H]1N2C(=O)NCc1ccc(F)cc1 | -6.96

Row | SMILES | hERG current change (%, negative = inhibition) at 10uM [%]
23 | Cc1ccc(CSc2ccc(-c3ccco3)nn2)cc1 | 5.09
24 | CCCN(CCC)C1Sc2ccc(C(=O)OC)cc2NC1=O (stereo not shown) | -9.31
25 | COc1ccc(Cn2cnc([N+](=O)[O-])c2)cc1[N+](=O)[O-] | -6.77
26 | O=C(CCNS(=O)(=O)c1cccc2nsnc12)N1CCc2ccccc21 | -8.68
27 | COc1cc(NC(=S)NCc2ccco2)c(OC)cc1Cl | -5.96
28 | O=C(NCc1cccnc1)C1CCN(S(=O)(=O)c2cc(Cl)ccc2Cl)CC1 | -21.7
29 | Cn1c(SCC(=O)Nc2ccc(Cl)cc2)nc(O)cc1=O | 7.92
30 | NC(=O)[C@H]1CC2(CC(c3cccc(NC(=O)CC(c4ccccc4)c4ccccc4)c3)=NO2)CN1C(=O)C(c1ccccc1)c1ccccc1 (stereo partly shown) | 8.82
31 | CCn1c(SCC(=O)NCc2ccc(C)cc2)nnc1-c1ccncc1 | -0.947
32 | CC1CN(CC(O)COc2ccc(C(=O)c3ccccc3)cc2)CC(C)O1 (stereo not shown) | -63.3
33 | Cc1csc(CNC(=O)C2CCC(=O)N(CCCc3ccccc3)C2)n1 (stereo not shown) | -12.5
34 | N#Cc1nc(-c2ccco2)oc1N1CCN(Cc2ccccc2)CC1 | -26.9
35 | O=C(NCc1cccs1)C1CCCN(c2nc3ccccc3o2)C1 (stereo not shown) | -45.8
36 | O=C(C[n+]1cccc(C(=O)N/N=C/c2ccc(Br)cc2)c1)c1ccccc1 | -56.5
37 | C=CCSC1=C(C#N)C(c2ccc(OCC)cc2)CC(=O)N1 (stereo not shown) | -14.5
38 | Cc1ccnc(NC(=O)c2ccc3c(c2)S(=O)(=O)c2ccccc2C3=O)c1 | -8.26
39 | Cc1cccc(NC(=O)c2ccc3nccnc3c2)n1 | -22.8
40 | CCOc1ccc(NS(=O)(=O)c2ccc(NS(=O)(=O)c3ccccc3)cc2)cc1 | -5.61
41 | CCOC(=O)CSc1nnc(CNC(=O)c2ccc(OC)cc2)n1-c1ccc(OC)cc1 | -20.2
42 | O=C(Nc1ccc(S(=O)(=O)N2CCCCC2)cc1)C1CCN(C(=O)c2ccc(F)cc2)CC1 | -33.7
43 | COc1cc(Nc2ccccc2Cl)c([N+](=O)[O-])nc1[N+](=O)[O-] | 0.00238
